Source: patent US20120195900A1 (AbbVie / Abbott, published 2012)

Legend:
human IL-12 [1] = molecular target: T1, human IL-12 (human, UniProt P29459 23-219; P29460 23-328, biotinylated in the ELISA (site not stated)); experiment: cell-based or functional assay
T1 sequence (looked up) 1: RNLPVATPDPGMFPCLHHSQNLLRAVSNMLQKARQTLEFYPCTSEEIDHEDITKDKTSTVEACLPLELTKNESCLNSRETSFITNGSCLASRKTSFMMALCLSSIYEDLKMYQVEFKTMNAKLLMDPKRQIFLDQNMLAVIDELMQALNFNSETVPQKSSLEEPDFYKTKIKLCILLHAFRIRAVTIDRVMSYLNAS
T1 sequence (looked up) 2: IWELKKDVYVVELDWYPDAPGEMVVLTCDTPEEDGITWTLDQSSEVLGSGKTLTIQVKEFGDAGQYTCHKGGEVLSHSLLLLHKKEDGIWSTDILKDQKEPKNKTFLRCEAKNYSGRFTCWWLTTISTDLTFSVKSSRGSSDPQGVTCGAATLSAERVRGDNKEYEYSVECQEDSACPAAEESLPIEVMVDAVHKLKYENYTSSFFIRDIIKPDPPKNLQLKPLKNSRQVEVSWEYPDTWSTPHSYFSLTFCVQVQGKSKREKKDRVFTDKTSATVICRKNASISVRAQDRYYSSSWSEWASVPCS

recombinant human IL-18 = recombinant human IL-18 (human, UniProt Q14116 37-193); experiment: cell-based or functional assay
human IL-12 [2] = molecular target: T1, human IL-12; experiment: ELISA, biotinylated IL-12 on streptavidin plates, anti-human IgG detection (column head: ED50)

B1: TVD-Ig 001 (other)
heavy: EVTLRESGPALVKPTQTLTLTCTFSGFSLSKSVMGVSWIRQPPGKALEWLAHIYWDDDKYYNPSLKSRLTISKDTSKNQVVLTMTNMDPVDTATYYCARRGIRSAMDYWGQGTTVTVSSASTKGPEVQLVQSGTEVKKPGESLKISCKGSGYTVTSYWIGWVRQMPGKGLEWMGFIYPGDSETRYSPTFQGQVTISADKSFNTAFLQWSSLKASDTAMYYCARVGSGWYPYTFDIWGQGTMVTVSSASTKGPEVQLVQSGAEVKKPGASVKVSCKASGYTFTKYWLGWVRQAPGQGLEWMGDIYPGYDYTHYNEKFKDRVTLTTDTSTSTAYMELRSLRSDDTAVYYCARSDGSSTYWGQGTLVTVSSASTKGPSVFPLAPSSKSTSGGTAALGCLVKDYFPEPVTVSWNSGALTSGVHTFPAVLQSSGLYSLSSVVTVPSSSLGTQTYICNVNHKPSNTKVDKKV[in this place human IgG1 Fc with changes]
light: DIVMTQSPDSLAVSLGERATINCKASQSVSNDVAWYQQKPGQPPKLLIYYASNRYTGVPDRFSGSGSGTDFTLTISSLQAEDVAVYYCQQDYNSPWTFGGGTKVEIKRTVAAPEIVMTQSPATLSVSPGERATLSCRASESISSNLAWYQQKPGQAPRLFIYTASTRATDIPARFSGSGSGTEFTLTISSLQSEDFAVYYCQQYNNWPSITFGQGTRLEIKRTVAAPDVLMTQTPLSLPVTPGEPASISCTSSQNIVHSNGNTYLEWYLQKPGQSPQLLIYKVSNRFSGVPDRFSGSGSGTDFTLKISRVEAEDVGVYYCFQVSHVPYTFGGGTKVEIKRTVAAPSVFIFPPSDEQLKSGTASVVCLLNNFYPREAKVQWKVDNALQSGNSQESVTEQDSKDSTYSLSSTLTLSKADYEKHKVYACEVTHQGLSSPVTKSFNRGEC
notes: Tri-variable domain immunoglobulin (IgG-like, two heavy and two light chains) for IL-12, IL-18 and PGE2; made in HEK 293-6E cells; The labels TVD-1218PGE2 / TVD-PGE21218 of the methods paragraphs are not tied to TVD-Ig 001 / 002 in words; also called TVD001
neutralization potency (IC50, nM), human IL-12 bioassay: IFN-γ release from PHA blast cells (human IL-12 [1]): 0.559 nM | neutralization potency (IC50, nM), KG-1 bioassay: IFN-γ production (recombinant human IL-18): 0.29 nM | EC50 (human IL-12 [2]): 660 pM
